Test [1] has as its system HSkMC (human skeletal muscle cells). As to the kind of experiment: cytotoxicity call (relative viability < 0.9). The following applies: 10 µM.
In test [2] the test system is HepG2. As to the kind of experiment: cytotoxicity call (relative viability < 0.9). The following applies: 10 µM.
Test [3] deals with S. aureus RN4220. As to the kind of experiment: growth inhibition call (relative growth <= 0.2). The following applies: 50 µM.

The list shows a part of the results.

Consider `COCC#Cc1ccc2c(c1)O[C@@H](CN(C)C(=O)Nc1ccccc1F)[C@H](C)CN([C@@H](C)CO)S2(=O)=O`, for which the cytotoxicity call in test [1] and in test [2] was “inactive” in each case. Moreover, the growth inhibition call in test [3] was “inactive”.
As for `CN1C(=O)c2cc(NC(=O)c3cscn3)ccc2OC[C@H]2O[C@@H](CC(=O)N3CCOCC3)CC[C@@H]21`, the cytotoxicity call in test [1] and in test [2] was “inactive” throughout. Further, the growth inhibition call in test [3] is “inactive”.
Regarding `C[C@H](CO)N1C[C@H](C)[C@@H](CN(C)C(=O)Cc2ccccc2)OCCCC[C@H](C)Oc2ccc(NS(=O)(=O)c3cccs3)cc2C1=O`, the cytotoxicity call in test [1] and in test [2] was “inactive” throughout. Besides, in test [3], the growth inhibition call is “inactive”.
In the case of `COC(=O)c1c2oc(c1C(=O)OC)C(=O)N[C@H](Cc1ccccc1)Cn1cc(nn1)CNC(=O)[C@@H](Cc1ccccc1)NC(=O)N[C@@H](COC(=O)NCCCCCC(=O)NO)CC2`, the cytotoxicity call in test [1] and in test [2] was “inactive” in each case. In addition, the growth inhibition call in test [3] is “inactive”.
Regarding `CC(C)NC(=O)N(C)C[C@H]1Oc2ccc(NS(=O)(=O)c3ccc(F)cc3)cc2C(=O)N([C@@H](C)CO)C[C@@H]1C`, the cytotoxicity call in test [1] and in test [2] was “inactive” in each case. Besides, in test [3], the growth inhibition call was “inactive”.
On to `Cc1noc(C)c1NC(=O)Nc1ccc2c(c1)CC(=O)N([C@@H](C)CO)C[C@H](C)[C@@H](CN(C)Cc1ccc(C(F)(F)F)cc1)O2`, for which the cytotoxicity call in test [1] and in test [2] was “inactive” each time. Further, the growth inhibition call in test [3] was “inactive”.
As to `COc1ccc(CNS(=O)(=O)N(C)C)cc1`, the cytotoxicity call in test [1] and in test [2] was “inactive” in each case. Further, in test [3], the growth inhibition call is “inactive”.
`COc1cccc(-c2ccc3c(c2)O[C@@H](CN(C)C(=O)C2CCC2)[C@H](C)CN([C@@H](C)CO)S3(=O)=O)c1`: the cytotoxicity call in test [1] and in test [2] was “inactive” each time. In test [3], the growth inhibition call is “inactive”.
Take `COc1ccc(C#Cc2ccc3c(c2)[C@]2(C(=O)N3)[C@H](c3ccccc3OCCO)N3[C@H](c4ccccc4)[C@H](c4ccccc4)OC(=O)[C@H]3[C@@H]2C(=O)N2CCN(c3ncccn3)CC2)cc1`: the cytotoxicity call in test [1] is “inactive”. Also, the cytotoxicity call in test [2] is “active”. The growth inhibition call in test [3] was “inactive”.
For the compound `Cc1noc(C)c1NC(=O)Nc1ccc2c(c1)CC(=O)N([C@@H](C)CO)C[C@H](C)[C@H](CN(C)Cc1ccc(Oc3ccccc3)cc1)O2`, the cytotoxicity call in test [1] and in test [2] was “inactive” in each case. Moreover, the growth inhibition call in test [3] was “inactive”.
In the case of `C[C@@H]1CCCCO[C@H](CN(C)Cc2ccc(C(F)(F)F)cc2)[C@H](C)CN([C@H](C)CO)C(=O)c2cc(NC(=O)Nc3ccccc3)ccc2O1`, the cytotoxicity call in test [1] and in test [2] was “active” each time. The growth inhibition call in test [3] was “inactive”.
Take `C[C@H]1CN([C@@H](C)CO)C(=O)c2cc(Br)cnc2O[C@H]1CN(C)C(=O)c1ccc2c(c1)OCO2`: the cytotoxicity call in test [1] and in test [2] was “inactive” throughout. The growth inhibition call in test [3] was “inactive”.
`C[C@@H]1CCCCO[C@@H](CN(C)S(=O)(=O)c2ccc(Cl)cc2)[C@@H](C)CN([C@@H](C)CO)C(=O)c2cc(NC(=O)CCC(F)(F)F)ccc2O1`: the cytotoxicity call in test [1] and in test [2] was “inactive” in each case. The growth inhibition call in test [3] is “inactive”.
Consider `Cn1c(=O)c(=O)n(C)c2cc(S(=O)(=O)N3CCOCC3)ccc21`, for which the cytotoxicity call in test [1] and in test [2] was “inactive” each time. Besides, in test [3], the growth inhibition call was “inactive”.
Consider `C[C@H](CO)N1C[C@H](C)[C@H](CN(C)Cc2ccc(-c3ccccc3)cc2)Oc2c(NC(=O)Nc3ccccc3)cccc2C1=O`, for which the cytotoxicity call in test [1] and in test [2] was “inactive” each time. For the same compound, the growth inhibition call in test [3] is “inactive”.
Consider `Cc1noc(C)c1NC(=O)Nc1ccc2c(c1)C(=O)N([C@H](C)CO)C[C@@H](C)[C@@H](CN(C)Cc1ccc(C(F)(F)F)cc1)O2`, for which the cytotoxicity call in test [1] and in test [2] was “inactive” each time. The growth inhibition call in test [3] is “inactive”.
As for `C[C@@H]1CCCCO[C@H](CN(C)Cc2ccc3c(c2)OCO3)[C@H](C)CN([C@H](C)CO)C(=O)c2cc(NC(=O)Nc3ccccc3)ccc2O1`, in test [1], the cytotoxicity call was “inactive”. Moreover, the cytotoxicity call in test [2] is “active”. In addition, the growth inhibition call in test [3] was “inactive”.
As to `Cn1c(=O)sn(-c2ccccc2)c1=O`, the cytotoxicity call in test [1] and in test [2] was “inactive” each time. In addition, in test [3], the growth inhibition call was “inactive”.
With `C[C@@H]1CN([C@@H](C)CO)C(=O)c2cccc(NC(=O)C3CC3)c2O[C@@H]1CN(C)S(=O)(=O)c1cn(C)cn1`, the cytotoxicity call in test [1] and in test [2] was “inactive” in each case. In addition, the growth inhibition call in test [3] was “inactive”.
As to `CC(C)(C)[C@H]1COC(=O)[C@@H](NC(=O)OCC2c3ccccc3-c3ccccc32)CC=CC[C@H](CC(=O)N(CCO)Cc2ccccc2)C(=O)N1`, the cytotoxicity call in test [1] and in test [2] was “inactive” throughout. In addition, in test [3], the growth inhibition call was “inactive”.
As for `CN1C(=O)c2cc(NC(=O)C3CCOCC3)ccc2OC[C@@H]2O[C@@H](CC(=O)NCCc3ccncc3)CC[C@H]21`, the cytotoxicity call in test [1] and in test [2] was “inactive” each time. Besides, the growth inhibition call in test [3] is “inactive”.
Consider `C[C@H]1CN([C@@H](C)CO)C(=O)c2cc(NC(=O)Cn3cnnn3)ccc2O[C@@H]1CN(C)C(=O)Nc1cccc2ccccc12`, for which the cytotoxicity call in test [1] and in test [2] was “inactive” each time. For the same compound, in test [3], the growth inhibition call was “inactive”.
Regarding `Cc1noc(C)c1NC(=O)N(C)C[C@@H]1OCCCC[C@H](C)Oc2ccc(NC(=O)c3ccccc3)cc2C(=O)N([C@@H](C)CO)C[C@H]1C`, the cytotoxicity call in test [1] and in test [2] was “inactive” each time. The growth inhibition call in test [3] was “inactive”.
For the compound `C[C@H]1CCCCO[C@H](CN(C)S(=O)(=O)c2ccc(F)cc2)[C@@H](C)CN([C@@H](C)CO)C(=O)c2cc(NS(=O)(=O)c3ccc(Cl)cc3)ccc2O1`, in test [1], the cytotoxicity call is “inactive”. In test [2], the cytotoxicity call is “active”. Besides, the growth inhibition call in test [3] was “inactive”.
For the compound `Cn1c(=O)c2c(nc(Cl)n2CCN2C(=O)CNC2=O)n(C)c1=O`, the cytotoxicity call in test [1] and in test [2] was “inactive” each time. The growth inhibition call in test [3] is “inactive”.
Consider `CCO/C(O)=C1/C(=O)CN(C)C1=O`, for which the cytotoxicity call in test [1] and in test [2] was “inactive” each time. For the same compound, in test [3], the growth inhibition call was “inactive”.
Turning to `CC(C)NC(=O)N(C)C[C@@H]1Oc2ccc(NS(=O)(=O)c3ccc(F)cc3)cc2C(=O)N([C@@H](C)CO)C[C@@H]1C`, the cytotoxicity call in test [1] and in test [2] was “inactive” each time. Further, the growth inhibition call in test [3] was “inactive”.
For the compound `COCC(=O)N(C)C[C@H]1Oc2cc(C#CCC3CCCC3)ccc2S(=O)(=O)N([C@@H](C)CO)C[C@@H]1C`, the cytotoxicity call in test [1] and in test [2] was “inactive” each time. Besides, the growth inhibition call in test [3] is “inactive”.
